From publication PMC12820563
This is one part of the list. The list includes weakly bound sequences.

Target: T1, MBP-FoxP3dN (UniProt Q99JB6)
T1 sequence: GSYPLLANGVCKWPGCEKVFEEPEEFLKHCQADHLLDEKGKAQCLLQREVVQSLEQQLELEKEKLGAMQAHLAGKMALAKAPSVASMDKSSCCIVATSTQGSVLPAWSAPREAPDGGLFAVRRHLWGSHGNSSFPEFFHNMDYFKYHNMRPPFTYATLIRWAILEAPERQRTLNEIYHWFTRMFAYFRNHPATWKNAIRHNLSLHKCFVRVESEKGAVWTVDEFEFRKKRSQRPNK
Test: PD-seq (MBP pull-down with sequencing)
Conditions: 20 mM Tris-HCl pH 7.5, 100 mM NaCl, 1.5 mM MgCl2, 0.4 uM protein, 0.1 uM dsDNA library, 30 min, room temperature, amylose pull-down; high values mean tight binding; double strand, one strand shown

| Sequence | binding signal (RPM ratio (pull-down/input)) |
| --- | --- |
| GATGATTGTTCTCCCAGCTGATGAATTGTATTGATCGAGTAAACAAATTTTCCTAATCTTTCTGTTCAAGCGCCATCTAC | 5.01 |
| GATGATTGTTCTCCCAGCTGATGAATTTATCGGATCGAGTAAACAAATTTTCCTAATCTTTCTGTTCAAGCGCCATCTAC | 0.349 |
| GATGATTGTTCTCCCAGCTGATGAATTGCGCAGATCGAGTAAACAAATTTTCCTAATCTTTCTGTTCAAGCGCCATCTAC | 0.774 |
| GATGATTGTTCTCCCAGCTGATGAATTAACTGTATCGAGTAAACAAATTTTCCTAATCTTTCTGTTCAAGCGCCATCTAC | 0.594 |
| GATGATTGTTCTCCCAGCTGATGAATTAAGTGCTTCGAGTAAACAAATTTTCCTAATCTTTCTGTTCAAGCGCCATCTAC | 0.6 |
| GATGATTGTTCTCCCAGCTGATGAATTAGCTTTATCGAGTAAACAAATTTTCCTAATCTTTCTGTTCAAGCGCCATCTAC | 1.44 |
| GATGATTGTTCTCCCAGCTGATGAATTATGCAGTTCGAGTAAACAAATTTTCCTAATCTTTCTGTTCAAGCGCCATCTAC | 2.29 |
| GATGATTGTTCTCCCAGCTGATGAATTGAGAGCCTCGAGTAAACAAATTTTCCTAATCTTTCTGTTCAAGCGCCATCTAC | 0.444 |
| GATGATTGTTCTCCCAGCTGATGAATTACACTGATCGAGTAAACAAATTTTCCTAATCTTTCTGTTCAAGCGCCATCTAC | 0.457 |
| GATGATTGTTCTCCCAGCTGATGAATTTTCCCATTCGAGTAAACAAATTTTCCTAATCTTTCTGTTCAAGCGCCATCTAC | 0.252 |
| GATGATTGTTCTCCCAGCTGATGAATTAGTGATGTCGAGTAAACAAATTTTCCTAATCTTTCTGTTCAAGCGCCATCTAC | 2.37 |
| GATGATTGTTCTCCCAGCTGATGAATTCACTTCTTCGAGTAAACAAATTTTCCTAATCTTTCTGTTCAAGCGCCATCTAC | 0.371 |
| GATGATTGTTCTCCCAGCTGATGAATTTCACTCATCGAGTAAACAAATTTTCCTAATCTTTCTGTTCAAGCGCCATCTAC | 0.652 |
| GATGATTGTTCTCCCAGCTGATGAATTAATATCCTCGAGTAAACAAATTTTCCTAATCTTTCTGTTCAAGCGCCATCTAC | 0.643 |
| GATGATTGTTCTCCCAGCTGATGAATTCTGGTGATCGAGTAAACAAATTTTCCTAATCTTTCTGTTCAAGCGCCATCTAC | 0.544 |
| GATGATTGTTCTCCCAGCTGATGAATTACATTTATCGAGTAAACAAATTTTCCTAATCTTTCTGTTCAAGCGCCATCTAC | 1.35 |

| Sequence | binding signal (RPM ratio (pull-down/input)) |
| --- | --- |
| GATGATTGTTCTCCCAGCTGATGAATTGCGCCTATCGAGTAAACAAATTTTCCTAATCTTTCTGTTCAAGCGCCATCTAC | 3.68 |
| GATGATTGTTCTCCCAGCTGATGAATTTAAAATCTCGAGTAAACAAATTTTCCTAATCTTTCTGTTCAAGCGCCATCTAC | 0.196 |
| GATGATTGTTCTCCCAGCTGATGAATTTCAGGAATCGAGTAAACAAATTTTCCTAATCTTTCTGTTCAAGCGCCATCTAC | 0.179 |
| GATGATTGTTCTCCCAGCTGATGAATTGGTCTCGTCGAGTAAACAAATTTTCCTAATCTTTCTGTTCAAGCGCCATCTAC | 0.336 |
| GATGATTGTTCTCCCAGCTGATGAATTTCGGATATCGAGTAAACAAATTTTCCTAATCTTTCTGTTCAAGCGCCATCTAC | 0.42 |
| GATGATTGTTCTCCCAGCTGATGAATTATCCGTGTCGAGTAAACAAATTTTCCTAATCTTTCTGTTCAAGCGCCATCTAC | 0.352 |
| GATGATTGTTCTCCCAGCTGATGAATTCTCGCCTTCGAGTAAACAAATTTTCCTAATCTTTCTGTTCAAGCGCCATCTAC | 2.22 |
| GATGATTGTTCTCCCAGCTGATGAATTGCCTCTGTCGAGTAAACAAATTTTCCTAATCTTTCTGTTCAAGCGCCATCTAC | 0.862 |
| GATGATTGTTCTCCCAGCTGATGAATTCGTGCGATCGAGTAAACAAATTTTCCTAATCTTTCTGTTCAAGCGCCATCTAC | 0.628 |
| GATGATTGTTCTCCCAGCTGATGAATTCGGAGGTTCGAGTAAACAAATTTTCCTAATCTTTCTGTTCAAGCGCCATCTAC | 0.33 |
| GATGATTGTTCTCCCAGCTGATGAATTGCGTCGCTCGAGTAAACAAATTTTCCTAATCTTTCTGTTCAAGCGCCATCTAC | 0.993 |
| GATGATTGTTCTCCCAGCTGATGAATTTATGAGCTCGAGTAAACAAATTTTCCTAATCTTTCTGTTCAAGCGCCATCTAC | 1.58 |
| GATGATTGTTCTCCCAGCTGATGAATTCGTGCTTTCGAGTAAACAAATTTTCCTAATCTTTCTGTTCAAGCGCCATCTAC | 0.96 |
| GATGATTGTTCTCCCAGCTGATGAATTGCCGTACTCGAGTAAACAAATTTTCCTAATCTTTCTGTTCAAGCGCCATCTAC | 0.656 |
| GATGATTGTTCTCCCAGCTGATGAATTAAGAGTTTCGAGTAAACAAATTTTCCTAATCTTTCTGTTCAAGCGCCATCTAC | 1.24 |
| GATGATTGTTCTCCCAGCTGATGAATTACCAACCTCGAGTAAACAAATTTTCCTAATCTTTCTGTTCAAGCGCCATCTAC | 0.382 |
